# Measurements as given in the supplement of paper PMC10037445.
# Whole data set: some 2,900 compounds, median “IRF Lucia reporter activity, fold change vs agonist alone” near 0.9, cut for the highest 2% near 2.8. Some of the results follow.
# Assays:
# [1] = tested on: RAW-Dual; assay: IRF Lucia reporter activity, fold change vs agonist alone; cytotoxicity flag (confluency mask): not cytotoxic; higher = enhanced IRF activity
# Method in brief: (§1)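 After 50 nL of library stock was delivered by pin tool to RAW-Dual macrophages (50,000 cells/well, DMEM, 384-well plates), a PRR agonist was added 1 h later and the plates were kept at 37 °C, 5% CO2. Twenty hours later, IRF was read from supernatant by QuantiLuc luminescence and NF-κB by QuantiBlue absorbance at 620 nm. Reporter activity is stated as fold change over agonist-alone wells. Wells with IncuCyte confluency under 70% of agonist controls in both mask sets were counted as cytotoxic.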
# [2] = tested on: RAW-Dual; assay: IRF Lucia reporter activity, fold change vs agonist alone; higher = enhanced IRF activity; conditions: library stock concentration (final ~1000-fold dilution): 10 mM, agonist: MPLA (TLR4) […]
# Method in brief: as §1
# [3] = tested on: RAW-Dual; assay: IRF Lucia reporter activity, fold change vs agonist alone; cytotoxicity flag (confluency mask): cytotoxic (confluency <70% of control); higher = enhanced IRF activity
# Method in brief: as §1
# [4] = agonist: 3'3'-cGAMP (STING) 10 ug/mL
# [5] = cytotoxicity flag (confluency mask): not cytotoxic
smiles,measurement,setting,value
CC(C)n1nc(-c2ccc(NC(=O)Nc3cc(C(F)(F)F)ccc3F)cc2)c2c(N)ncnc21 (library stock concentration (final ~1000-fold dilution): 10 mM),IRF Lucia reporter activity,[1]; [4],0.0107
same,IRF Lucia reporter activity,[1]; agonist: LPS (TLR4) 0.1 ug/mL,0.0198
N#Cc1c(NC(=O)c2cccc3ccccc23)sc2c1CCCC2 (library stock concentration (final ~1000-fold dilution): 10 mM),IRF Lucia reporter activity,[1]; [4],0.636
same,IRF Lucia reporter activity,[1]; agonist: LPS (TLR4) 0.1 ug/mL,1.55
N#Cc1c(NC(=O)c2cccc3ccccc23)sc2c1CCCC2,IRF Lucia reporter activity,[2]; [5],1.73
C=CC(=O)Nc1cccc(Nc2nc(Nc3ccc(OCCOC)cc3)ncc2F)c1 (library stock concentration (final ~1000-fold dilution): 10 mM),IRF Lucia reporter activity,[1]; [4],0.0159
same,IRF Lucia reporter activity,[1]; agonist: LPS (TLR4) 0.1 ug/mL,0.0838
C=CC(=O)Nc1cccc(Nc2nc(Nc3ccc(OCCOC)cc3)ncc2F)c1,IRF Lucia reporter activity,[2]; [5],0.0928
CCC(=O)Nc1cccc(Oc2nc(Nc3ccc(N4CCN(C)CC4)cc3OC)ncc2Cl)c1,IRF Lucia reporter activity,[2]; cytotoxicity flag (confluency mask): cytotoxic (confluency <70% of control),1.02
CCC(=O)Nc1cccc(Oc2nc(Nc3ccc(N4CCN(C)CC4)cc3OC)ncc2Cl)c1 (library stock concentration (final ~1000-fold dilution): 10 mM),IRF Lucia reporter activity,[3]; [4],0.692
same,IRF Lucia reporter activity,[3]; agonist: LPS (TLR4) 0.1 ug/mL,0.774
CC(C)CC(=O)NC(C(=O)NC(C(=O)NC(CC(C)C)C(O)CC(=O)NC(C)C(=O)NC(CC(C)C)C(O)CC(=O)O)C(C)C)C(C)C (stereo not drawn) (library stock concentration (final ~1000-fold dilution): 10 mM),IRF Lucia reporter activity,[1]; [4],0.751
same,IRF Lucia reporter activity,[1]; agonist: LPS (TLR4) 0.1 ug/mL,0.901
CC(C)CC(=O)NC(C(=O)NC(C(=O)NC(CC(C)C)C(O)CC(=O)NC(C)C(=O)NC(CC(C)C)C(O)CC(=O)O)C(C)C)C(C)C (stereo not drawn),IRF Lucia reporter activity,[2]; [5],1.05
COc1ccc(CCc2nc3cc(-c4c(C)noc4C)ccc3n2CC(C)N2CCOCC2)cc1Cl (stereo not drawn) (library stock concentration (final ~1000-fold dilution): 10 mM),IRF Lucia reporter activity,[1]; [4],0.452
same,IRF Lucia reporter activity,[1]; agonist: LPS (TLR4) 0.1 ug/mL,0.421
COc1ccc(CCc2nc3cc(-c4c(C)noc4C)ccc3n2CC(C)N2CCOCC2)cc1Cl (stereo not drawn),IRF Lucia reporter activity,[2]; [5],0.203
O=C1NCCCc2c1oc1ccc(O)cc21 (library stock concentration (final ~1000-fold dilution): 10 mM),IRF Lucia reporter activity,[1]; [4],0.578
same,IRF Lucia reporter activity,[1]; agonist: LPS (TLR4) 0.1 ug/mL,0.289
O=C1NCCCc2c1oc1ccc(O)cc21,IRF Lucia reporter activity,[2]; [5],0.466
COc1cc(N2CCC(N3CCN(C)CC3)CC2)ccc1Nc1ncc(Cl)c(Nc2ccccc2P(C)(C)=O)n1 (library stock concentration (final ~1000-fold dilution): 2 mM),IRF Lucia reporter activity,[1]; [4],0.139
same,IRF Lucia reporter activity,[1]; agonist: LPS (TLR4) 0.1 ug/mL,0.597
COc1ccccc1OCC(O)COC(N)=O (stereo not drawn) (library stock concentration (final ~1000-fold dilution): 10 mM),IRF Lucia reporter activity,[1]; [4],0.995
same,IRF Lucia reporter activity,[1]; agonist: LPS (TLR4) 0.1 ug/mL,0.997
COc1ccccc1OCC(O)COC(N)=O (stereo not drawn),IRF Lucia reporter activity,[2]; [5],0.678
NC(=O)C(=Cn1cnc(-c2cc(C(F)(F)F)cc(C(F)(F)F)c2)n1)c1cncnc1 (library stock concentration (final ~1000-fold dilution): 10 mM),IRF Lucia reporter activity,[1]; [4],0.0799
same,IRF Lucia reporter activity,[1]; agonist: LPS (TLR4) 0.1 ug/mL,0.172
CN(C)CCOC(=O)COc1ccc(Cl)cc1.Cl (library stock concentration (final ~1000-fold dilution): 10 mM),IRF Lucia reporter activity,[1]; [4],0.862
same,IRF Lucia reporter activity,[1]; agonist: LPS (TLR4) 0.1 ug/mL,1.04
CN(C)CCOC(=O)COc1ccc(Cl)cc1.Cl,IRF Lucia reporter activity,[2]; [5],0.877
COc1cc(-c2oc3cc(O)cc(O)c3c(=O)c2OC2OC(CO)C(O)C(O)C2OC2OC(C)C(O)C(O)C2O)ccc1O (stereo not drawn) (library stock concentration (final ~1000-fold dilution): 10 mM),IRF Lucia reporter activity,[1]; [4],1.05
same,IRF Lucia reporter activity,[1]; agonist: LPS (TLR4) 0.1 ug/mL,1.02
CCCCC(C=O)NC(=O)C(CC(C)C)NC(=O)OCc1ccccc1 (stereo not drawn),IRF Lucia reporter activity,[2]; [5],1.2
CCCCC(C=O)NC(=O)C(CC(C)C)NC(=O)OCc1ccccc1 (stereo not drawn) (library stock concentration (final ~1000-fold dilution): 10 mM),IRF Lucia reporter activity,[1]; [4],1.04
same,IRF Lucia reporter activity,[1]; agonist: LPS (TLR4) 0.1 ug/mL,1.07
Cc1sc2c(c1C)C(c1ccc(Cl)cc1)=NC(CC(=O)NCCCCNC(=O)COc1cccc3c1C(=O)N(C1CCC(=O)NC1=O)C3=O)c1nnc(C)n1-2 (stereo not drawn) (library stock concentration (final ~1000-fold dilution): 10 mM),IRF Lucia reporter activity,[3]; [4],0.331
same,IRF Lucia reporter activity,[3]; agonist: LPS (TLR4) 0.1 ug/mL,0.23
CCCCCCCCCCCC(CC1OC(=O)C1CCCCCC)OC(=O)C(CC(C)C)NC=O (stereo not drawn) (library stock concentration (final ~1000-fold dilution): 10 mM),IRF Lucia reporter activity,[1]; [4],0.931
same,IRF Lucia reporter activity,[1]; agonist: LPS (TLR4) 0.1 ug/mL,1.07
CCCCCCCCCCCC(CC1OC(=O)C1CCCCCC)OC(=O)C(CC(C)C)NC=O (stereo not drawn),IRF Lucia reporter activity,[2]; [5],1.07
O=C(O)COc1ccc(Br)cc1/C=C1\SC(=S)N(Cc2cccnc2)C1=O (library stock concentration (final ~1000-fold dilution): 10 mM),IRF Lucia reporter activity,[1]; [4],0.91
same,IRF Lucia reporter activity,[1]; agonist: LPS (TLR4) 0.1 ug/mL,0.792
COC(=O)NC(C(=O)NC(Cc1ccccc1)C(O)CN(Cc1ccc(-c2ccccn2)cc1)NC(=O)C(NC(=O)OC)C(C)(C)C)C(C)(C)C.O=S(=O)(O)O (stereo not drawn),IRF Lucia reporter activity,[2]; [5],0.773
